Test results from PMC11683816 (Journal of thrombosis and haemostasis : JTH, 2019).

Columns and labels:
Assay in all cases: SPR
[1] = target: GPIbα M239V (amino acids H1-E285) (UniProt P07359 17-301, M239V)
[2] = target: Wild-type GPIbα (amino acids H1-E285) (UniProt P07359 17-301)
[3] = target: GPIbα G233V/M239V double mutant (amino acids H1-E285) (UniProt P07359 17-301, G233V | M239V)
[4] = target: GPIbα G233V (amino acids H1-E285) (UniProt P07359 17-301, G233V)

Measured: binding result

B1: A1 domain of von Willebrand factor ([…]) (domain or fragment)
chain: not shown
binds: [1] | [2] | [3] | [4]
